Test results from the supplement of paper PMC4967469.
A lower IC50 marks a more sensitive line; where the fit passes the top or lowest dose, that dose stands as a limit. AUC, from the same fit, is the share of area under the viability curve across the 256-fold dose range: 1 means no effect, lower means more sensitive. An inferred top dose was derived from the fitted curves, not read from the paper.

Compound: O=C1NC(=NCc2cccs2)S/C1=C\c1ccc2ncccc2c1 [RO-3306]
Assay: Viability of human cancer cell lines after 72 h of drug (GDSC screen)
Settings: top dose 5 µM; top dose inferred
Method: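 Human cancer cell lines in 384-well plates, medium with 10% serum, drug for 72 h over a 256-fold dose range (nine 2-fold or five 4-fold steps up to the top dose). Adherent lines were fixed and stained with the nucleic acid dye Syto60, suspension lines read with resazurin; signal relative to control wells, capped at 0 and 100%. One two-parameter sigmoid per drug and line, fitted in a mixed model over all curves with the slope shared within a line.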

Cell Line | AUC | IC50
NCI-H835 (lung carcinoid, suspension) | 0.986 | > 5 µM
NCI-H838 (lung adenocarcinoma, adherent) | 0.934 | > 5 µM
NCI-H841 (small cell lung carcinoma, adherent) | 0.963 | > 5 µM
NCI-H847 (small cell lung carcinoma, adherent) | 0.993 | > 5 µM
NCI-H929 (myeloma, suspension) | 0.96 | > 5 µM
NCI-H1048 (small cell lung carcinoma, adherent) | 0.98 | > 5 µM
NCI-H1092 (small cell lung carcinoma, suspension) | 0.99 | > 5 µM
NCI-H1105 (small cell lung carcinoma, suspension) | 0.993 | > 5 µM
NCI-H1155 (large cell lung carcinoma, suspension) | 0.96 | > 5 µM
NCI-H1304 (small cell lung carcinoma, suspension) | 0.958 | > 5 µM
NCI-H1341 (small cell lung carcinoma, suspension) | 0.991 | > 5 µM
NCI-H1355 (lung adenocarcinoma, adherent) | 0.968 | > 5 µM
NCI-H1395 (lung adenocarcinoma, adherent) | 0.962 | > 5 µM
NCI-H1417 (small cell lung carcinoma, suspension) | 0.945 | > 5 µM
NCI-H1435 (lung adenocarcinoma, semi-adherent) | 0.993 | > 5 µM
NCI-H1436 (small cell lung carcinoma, suspension) | 0.983 | > 5 µM
NCI-H1437 (lung adenocarcinoma, adherent) | 0.941 | > 5 µM
NCI-H1563 (lung adenocarcinoma, adherent) | 0.893 | > 5 µM

Cell Line | AUC | IC50
NCI-H1568 (lung adenocarcinoma, adherent) | 0.977 | > 5 µM
NCI-H1623 (lung adenocarcinoma, adherent) | 0.964 | > 5 µM
NCI-H1648 (lung adenocarcinoma, adherent) | 0.977 | > 5 µM
NCI-H1651 (lung adenocarcinoma, adherent) | 0.975 | > 5 µM
NCI-H1688 (small cell lung carcinoma, adherent) | 0.974 | > 5 µM
NCI-H1693 (lung adenocarcinoma, adherent) | 0.958 | > 5 µM
NCI-H1694 (small cell lung carcinoma, suspension) | 0.975 | > 5 µM
NCI-H1703 (lung adenocarcinoma, adherent) | 0.825 | 3.93 µM
NCI-H1755 (lung adenocarcinoma, adherent) | 0.972 | > 5 µM
NCI-H1770 (non-small cell lung carcinoma, suspension) | 0.992 | > 5 µM
NCI-H1781 (lung adenocarcinoma, adherent) | 0.989 | > 5 µM
NCI-H1792 (lung adenocarcinoma, adherent) | 0.894 | > 5 µM
NCI-H1836 (small cell lung carcinoma, suspension) | 0.988 | > 5 µM
NCI-H1838 (lung adenocarcinoma, adherent) | 0.987 | > 5 µM
NCI-H1869 (lung squamous cell carcinoma, adherent) | 0.985 | > 5 µM
NCI-H1876 (small cell lung carcinoma, adherent) | 0.987 | > 5 µM
NCI-H1944 (lung adenocarcinoma, adherent) | 0.813 | 2.94 µM
